Data published in the supplement of paper PMC4967469.

Legend:
Assay in all cases: Viability of human cancer cell lines after 72 h of drug (GDSC screen)
Dimethyloxalylglycine = compound: COC(=O)CNC(=O)C(=O)OC [Dimethyloxalylglycine]; settings: top dose 4000 µM; top dose inferred
Protocol: (§1)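 Human cancer cell lines in 384-well plates, medium with 10% serum, drug for 72 h over a 256-fold dose range (nine 2-fold or five 4-fold steps up to the top dose). Adherent lines were fixed and stained with the nucleic acid dye Syto60, suspension lines read with resazurin; signal relative to control wells, capped at 0 and 100%. One two-parameter sigmoid per drug and line, fitted in a mixed model over all curves with the slope shared within a line.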

BIX02189 = compound: CN(C)Cc1cccc(N=C(c2ccccc2)c2c(O)[nH]c3cc(C(=O)N(C)C)ccc23)c1 [BIX02189]; settings: top dose 20 µM; top dose inferred
Protocol: as §1

TG101348 = compound: Cc1cnc(Nc2ccc(OCCN3CCCC3)cc2)nc1Nc1cccc(S(=O)(=O)NC(C)(C)C)c1 [TG101348]; settings: top dose 10.24 µM
Protocol: as §1

Doxorubicin = compound: COc1cccc2c1C(=O)c1c(O)c3c(c(O)c1C2=O)C[C@@](O)(C(=O)CO)C[C@@H]3O[C@H]1C[C@H](N)[C@H](O)[C@H](C)O1 [Doxorubicin]; settings: top dose 1.024 µM
Protocol: as §1

OSI-027 = compound: COc1cccc2cc(-c3nc([C@H]4CC[C@H](C(=O)O)CC4)n4ncnc(N)c34)[nH]c12 [OSI-027]; settings: top dose 20 µM
Protocol: as §1

VX-11e = compound: Cc1cnc(Nc2ccc(F)cc2Cl)nc1-c1c[nH]c(C(=O)N[C@H](CO)c2cccc(Cl)c2)c1 [VX-11e]; settings: top dose 5.12 µM; top dose inferred
Protocol: as §1

UNC1215 = compound: O=C(c1ccc(C(=O)N2CCC(N3CCCC3)CC2)c(Nc2ccccc2)c1)N1CCC(N2CCCC2)CC1 [UNC1215]; settings: top dose 1 µM; top dose inferred
Protocol: as §1

CCT018159 = compound: CCc1cc(-c2n[nH]c(C)c2-c2ccc3c(c2)OCCO3)c(O)cc1O [CCT018159]; settings: top dose 10 µM; top dose inferred
Protocol: as §1

Vismodegib = compound: CS(=O)(=O)c1ccc(C(=O)Nc2ccc(Cl)c(-c3ccccn3)c2)c(Cl)c1 [Vismodegib]; settings: top dose 10 µM; top dose inferred
Protocol: as §1

17-AAG = compound: C=CCNC1=C2C[C@@H](C)C[C@H](OC)[C@H](O)[C@@H](C)/C=C(\C)[C@H](OC(N)=O)[C@@H](OC)/C=C\C=C(/C)C(=O)NC(=CC1=O)C2=O [17-AAG]; settings: top dose 1 µM
Protocol: as §1

| Cell Line | AUC (Dimethyloxalylglycine) | IC50 (Dimethyloxalylglycine) | AUC (BIX02189) | IC50 (BIX02189) | AUC (TG101348) | IC50 (TG101348) | AUC (Doxorubicin) | IC50 (Doxorubicin) | AUC (OSI-027) | IC50 (OSI-027) | AUC (VX-11e) | IC50 (VX-11e) | AUC (UNC1215) | IC50 (UNC1215) | AUC (CCT018159) | IC50 (CCT018159) | AUC (Vismodegib) | IC50 (Vismodegib) | AUC (17-AAG) | IC50 (17-AAG) |
| --- | --- | --- | --- | --- | --- | --- | --- | --- | --- | --- | --- | --- | --- | --- | --- | --- | --- | --- | --- | --- |
| BICR31 (head and neck, adherent) | 0.29 | 63.2 µM | 0.976 | > 20 µM | 0.871 | 9.85 µM | 0.458 | 0.049 µM | 0.814 | 11.1 µM | 0.979 | > 5.12 µM | – | – | – | – | – | – | – | – |
| KP-N-YS (neuroblastoma, adherent) | 0.743 | 1400 µM | 0.866 | > 20 µM | 0.605 | 1.3 µM | 0.691 | 0.239 µM | 0.23 | 0.179 µM | 0.972 | > 5.12 µM | – | – | – | – | – | – | – | – |
| 769-P (kidney, adherent) | 0.933 | > 4000 µM | 0.94 | > 20 µM | 0.751 | 3.64 µM | 0.339 | 0.0218 µM | 0.455 | 0.933 µM | 0.823 | 3.38 µM | 0.98 | > 1 µM | – | – | – | – | – | – |
| TALL-1 (T-cell lymphoblastic leukaemia, suspension) | 0.91 | > 4000 µM | 0.972 | > 20 µM | 0.913 | > 10.2 µM | 0.965 | > 1.02 µM | 0.865 | 16.3 µM | 0.941 | > 5.12 µM | – | – | – | – | – | – | – | – |
| NCI-H2196 (small cell lung carcinoma, adherent) | 0.799 | 2040 µM | 0.967 | > 20 µM | 0.894 | > 10.2 µM | 0.713 | 0.266 µM | 0.32 | 0.381 µM | 0.978 | > 5.12 µM | – | – | – | – | – | – | – | – |
| HCE-4 (oesophagus, adherent) | 0.641 | 576 µM | 0.992 | > 20 µM | 0.99 | > 10.2 µM | 0.309 | 0.0204 µM | 0.992 | > 20 µM | 0.992 | > 5.12 µM | – | – | 0.991 | > 10 µM | – | – | – | – |
| KYSE-180 (oesophagus, adherent) | 0.886 | > 4000 µM | 0.93 | > 20 µM | 0.884 | > 10.2 µM | 0.504 | 0.0657 µM | 0.846 | 13.7 µM | 0.945 | > 5.12 µM | 0.982 | > 1 µM | – | – | – | – | – | – |
| HCC1599 (breast, suspension) | 0.393 | 122 µM | 0.904 | > 20 µM | 0.78 | 4.84 µM | 0.506 | 0.0666 µM | 0.362 | 0.489 µM | 0.949 | > 5.12 µM | – | – | – | – | – | – | – | – |
| TE-441-T (rhabdomyosarcoma, adherent) | 0.791 | 1720 µM | 0.946 | > 20 µM | 0.91 | > 10.2 µM | 0.557 | 0.0907 µM | 0.677 | 3.83 µM | 0.963 | > 5.12 µM | – | – | – | – | – | – | – | – |
| SNU-475 (liver, adherent) | 0.804 | 1740 µM | 0.953 | > 20 µM | 0.869 | 7.67 µM | 0.929 | > 1.02 µM | 0.889 | 18.1 µM | 0.99 | > 5.12 µM | – | – | – | – | – | – | – | – |
| SIG-M5 (acute myeloid leukaemia, suspension) | 0.254 | 61.9 µM | 0.509 | 1.32 µM | 0.394 | 0.352 µM | 0.351 | 0.0277 µM | 0.024 | < 0.0781 µM | 0.17 | 0.0471 µM | – | – | – | – | – | – | – | – |
| NCI-H2171 (small cell lung carcinoma, suspension) | 0.841 | 2250 µM | 0.991 | > 20 µM | 0.8 | 4.21 µM | 0.747 | 0.29 µM | 0.561 | 1.79 µM | 0.992 | > 5.12 µM | – | – | – | – | – | – | – | – |
| UACC-812 (breast, adherent) | 0.844 | 2710 µM | 0.99 | > 20 µM | 0.948 | > 10.2 µM | 0.959 | > 1.02 µM | 0.93 | > 20 µM | 0.99 | > 5.12 µM | – | – | – | – | – | – | – | – |
| SCC-3 (B-cell lymphoma, suspension) | 0.825 | 1580 µM | 0.992 | > 20 µM | 0.78 | 3.09 µM | 0.54 | 0.0799 µM | 0.452 | 0.959 µM | 0.984 | > 5.12 µM | – | – | – | – | – | – | – | – |
| BC-3 (B-cell lymphoma, suspension) | 0.512 | 269 µM | 0.921 | > 20 µM | 0.708 | 2.29 µM | 0.664 | 0.173 µM | 0.299 | 0.364 µM | 0.9 | > 5.12 µM | – | – | – | – | – | – | – | – |
| NK-92MI (lymphoid neoplasm, suspension) | 0.358 | 104 µM | – | – | – | – | 0.772 | 0.369 µM | – | – | – | – | – | – | – | – | – | – | – | – |
| HCC1143 (breast, adherent) | 0.902 | > 4000 µM | 0.972 | > 20 µM | 0.797 | 7.25 µM | – | – | 0.731 | 7.54 µM | 0.811 | 4.19 µM | 0.977 | > 1 µM | 0.951 | > 10 µM | 0.948 | > 10 µM | 0.642 | 0.181 µM |

The IC50 comes from the fitted curve, where viability falls to half of the control; a limit (>, <) means that the fit lies beyond the doses tested. AUC is the area under the same curve over the 256-fold range up to the top dose, as a fraction: 1 means no effect, lower means more sensitive. For some of these results: An inferred top dose was calculated from the reported fits.
